Measurements reported in PubChem BioAssay AID588342 (National Center for Advancing Translational Sciences (NCATS), 2011).
In all, about 360,000 compounds went through this assay and about 25,000 (6.9%) were called active. The inconclusive results got no clear call from the source; some entries with a clear call stand among them for comparison. The call rests on the fitted dose curve; in most records, active means well fitted inhibition curve with a large enough effect; inconclusive means small, poorly fitted or top-dose-only effect; inactive means flat fitted curve, though single readings scatter. Potencies of inconclusive entries are doubtful fits and often do not repeat.

Each molecule was assayed against Luciferin 4-monooxygenase (Photinus pyralis) (UniProt P08659) (assay: qHTS profiling assay for firefly luciferase inhibitor/activator using purifed enzyme and Km concentrations of substrates (counterscreen for miR-21 project)). Conditions: purified FLuc, luminescence inhibition; activity change, negative = inhibition: at 57.5 µM (top of the series).
Procedure, shortened: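 Biochemical qHTS of compounds, final roughly 60 µM downward over six points, against 10 nM purified firefly luciferase using Km concentrations of substrates (10 uM D-luciferin, 10 uM ATP) in Tris acetate pH 7.5 buffer; luminescence output.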
Further: nearly all actives have a fitted effect of over 55% in size.
Potency means the concentration at half of the fitted maximal effect; tags describe the fitted curve by direction and shape.
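Wherever activity change, negative = inhibition is given: plate controls were vehicle for no effect and reference inhibitor for full effect.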

Sequence of UniProt P08659 (P08659 whole entry, looked up): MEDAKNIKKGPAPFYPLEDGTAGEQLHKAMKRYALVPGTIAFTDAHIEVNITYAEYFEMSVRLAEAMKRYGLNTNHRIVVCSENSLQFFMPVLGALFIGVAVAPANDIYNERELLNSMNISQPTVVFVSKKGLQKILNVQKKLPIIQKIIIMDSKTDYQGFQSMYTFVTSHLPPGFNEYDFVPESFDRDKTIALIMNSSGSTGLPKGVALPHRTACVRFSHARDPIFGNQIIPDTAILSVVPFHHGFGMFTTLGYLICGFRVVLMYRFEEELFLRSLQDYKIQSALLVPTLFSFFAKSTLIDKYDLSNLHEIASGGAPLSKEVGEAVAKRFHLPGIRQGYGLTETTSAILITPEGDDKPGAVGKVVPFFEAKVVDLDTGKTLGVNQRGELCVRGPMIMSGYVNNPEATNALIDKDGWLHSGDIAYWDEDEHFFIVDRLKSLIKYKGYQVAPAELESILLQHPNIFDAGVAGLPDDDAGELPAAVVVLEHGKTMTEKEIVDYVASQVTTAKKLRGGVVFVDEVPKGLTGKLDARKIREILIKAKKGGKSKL

SMILES | activity change, negative = inhibition | Potency
O=C(Nc1nnc(C23CC4CC(CC(C4)C2)C3)s1)c1ccc(N2C(=O)CCC2=O)cc1 | inactive: 0.507% | –
CC(C)c1ccccc1-n1c(SCC(=O)N2CCc3ccccc3C2)nc2ccccc2c1=O | inactive: 2.8% | –
O=C(CNC(=O)c1ccccc1F)NC1=NCCS1 | – | inconclusive: 26.9 µM [inhibitor, partial curve, poor fit]
Cc1cc(C(=O)N2CCN(c3ccccn3)CC2)c(C)o1 | inactive: 3.1% [at 2.3 µM] | –
O=C(N/N=C/c1ccccc1F)NC12CC3CC(CC(C3)C1)C2 | – | inconclusive: 9.53 µM [inhibitor, partial curve]
CCCc1nc2ccc(NC(C)=O)cc2c(=O)n1Cc1ccc(Cl)cc1 | – | inconclusive: 23.9 µM [inhibitor, single point]
CC1(c2cccc(Br)c2)NC(=O)N(CC(=O)NCC2CCCO2)C1=O (stereo not given) | inactive: 2.11% | –
COc1ccc2c(c1)CCc1c(C(=O)N3CCCc4ccccc43)noc1-2 | – | active: 13.5 µM
COc1ccc2nc(N3CCOCC3)cc(C)c2c1 | – | active: 5.36 µM
COc1cccc(CNC(=O)CN2C(=O)N(c3cc(C)ccc3C)S(=O)(=O)c3ccccc32)c1OC | inactive: 5.2% | –
NC(=O)c1c(NC(=O)c2cccnc2)sc2c1CCCC2 | – | inconclusive: 4.26 µM [inhibitor, full curve]
COc1cc(-c2nc(C)c(C(C)=O)n2O)ccc1OCC(=O)Nc1ccc(Cl)cc1 | – | inconclusive: 5.36 µM [inhibitor, partial curve]
Cc1cccc2c3nc4ccccc4nc3n(CCCN3C(=O)c4ccccc4C3=O)c12 | inactive: 0.0691% | –
CCc1noc(C)c1C(=O)N1CCCSC1=Nc1ccccc1C(C)C | inactive: -12.4% | –
CCN(C(=O)COC(=O)c1cc(-c2ccc(C)o2)nc2ccccc12)C1CCS(=O)(=O)C1 (stereo not given) | – | active: 19 µM
CCN(CC)CCC(=O)N1c2ccccc2CCc2ccc(NC(=O)OC(C)C)cc21 | – | inconclusive: 23.9 µM [inhibitor, single point]
C/C(CC(=O)N1CCN(C=O)CC1)=N\NC(=O)c1ccc([N+](=O)[O-])cc1 | – | inconclusive: 37.9 µM [inhibitor, partial curve, poor fit]
COc1ccc(CCC(=O)Nc2ccc(Cl)c(S(=O)(=O)N3CCCC3)c2)cc1 | inactive: -7.89% | –
COCc1cc(C)nc(SCc2nc3ccccc3c(=O)[nH]2)c1C#N | inactive: -11% | –
NC(=O)c1ccccc1NCC(=O)c1ccc(Cl)cc1 | – | inconclusive: 3.01 µM [inhibitor, partial curve, poor fit]
CC12CCC(=O)N1C(C(=O)NCCN1C(=O)S/C(=C\c3ccccc3Cl)C1=O)CS2 (stereo not given) | – | inconclusive: 21.3 µM [inhibitor, partial curve, poor fit]
CC(=O)N1CCc2c(sc(NC(=O)c3ccc4c(c3)OCCO4)c2C#N)C1 | – | inconclusive: 33.8 µM [inhibitor, partial curve, poor fit]
CCCSc1nc2sc3c(c2c(=O)n1-c1ccccc1)CCC(C)C3 (stereo not given) | inactive: -2.36% | –
COc1cc(C(=O)NCCc2ccc3c(c2)OCCO3)ccc1OCC(=O)N1CCOCC1 | – | inconclusive: 26.9 µM [inhibitor, partial curve, poor fit]

SMILES | activity change, negative = inhibition | Potency
CNC(=O)NC(=O)CSc1ccc(S(=O)(=O)N2CCOCC2)cn1 | inactive: -5.08% | –
Cc1nc2c3cc(F)ccc3n(Cc3ccccc3)c2s1 | inactive: -1.51% | –
O=C(c1cn(-c2ccccc2)nc1-c1ccc(F)cc1)N1CCCCC1 | – | inconclusive: 37.9 µM [inhibitor, single point]
N#Cc1ccccc1Oc1ccc(S(=O)(=O)N2CCCCC2)cn1 | – | inconclusive: 26.9 µM [inhibitor, single point]
COc1ccc(C2=NN(CN3C(=O)C(=O)c4ccccc43)C(c3ccc(C)cc3)C2)cc1 (stereo not given) | – | inconclusive: 30.1 µM [inhibitor, partial curve, poor fit]
Cc1cccc(C(=O)OCc2cncs2)c1 | – | inconclusive: 30.1 µM [inhibitor, single point]
O=C(Cc1ccccc1)NC(=S)Nc1ccc2oc(-c3ccccc3F)nc2c1 | – | active: 13.5 µM
CCOC(=O)C1=NNC(C(=O)c2ccc(C)cc2)C1c1ccc(OC)cc1 (stereo not given) | – | inconclusive: 37.9 µM [inhibitor, partial curve, poor fit]
CCOC(=O)c1c(C(F)(F)F)cc(-c2ccc(F)cc2)nc1C | – | inconclusive: 37.9 µM [inhibitor, partial curve, poor fit]
Cc1ccc(N(Cc2ccccc2)C(=O)c2cccc(S(=O)(=O)N3CCN(C)CC3)c2)cc1 | – | inconclusive: 26.9 µM [inhibitor, partial curve, poor fit]
CCN(CC)CCN1C(=O)C(=O)/C(=C(/O)c2ccc(S(=O)(=O)N3CCOCC3)cc2)C1c1ccc(C)cc1 (stereo not given) | inactive: -0.196% | –
Oc1ccccc1-c1nnc(COc2ccc(Cl)cc2Cl)o1 | – | inconclusive: 5.36 µM [inhibitor, partial curve]
Fc1ccc(-c2nn(-c3ccccc3)cc2CNCc2ccccc2)cc1 | – | inconclusive: 26.9 µM [inhibitor, partial curve, poor fit]
CCOC(=O)c1ccc(NC(=O)C(CC)CC)cc1 | – | inconclusive: 21.3 µM [inhibitor, single point]
COc1cc(CN(C(=O)COc2ccc(Br)cc2)c2ccccn2)cc(OC)c1OC | – | inconclusive: 23.9 µM [inhibitor, partial curve]
O=c1c2ccccc2nc(SCCN2CCCCC2)n1CCc1ccccc1 | – | inconclusive: 37.9 µM [inhibitor, partial curve, poor fit]
COCc1nnc(NC(=O)c2ccccc2Oc2ccccc2)s1 | inactive: -0.172% | –
COc1cc(OC)cc(-c2nc3nc(C)c(CCC(=O)O)c(C)n3n2)c1 | – | inconclusive: 23.9 µM [inhibitor, partial curve]
COc1cccc(C(=O)NCCSCc2ccccc2Cl)c1 | – | inconclusive: 37.9 µM [inhibitor, partial curve, poor fit]
COc1ccc(-c2noc(-c3ccccc3C(=O)Nc3cccnc3)n2)cc1OC | – | inconclusive: 26.9 µM [inhibitor, single point]
Cc1ccc(Nc2n[nH]c(C)c2[N+](=O)[O-])c(C)c1 | – | inconclusive: 26.9 µM [inhibitor, single point]
Cc1ccc(C)c(N2CCN(C(=O)c3cc4ccc5cccnc5c4[nH]3)CC2)c1 | – | inconclusive: 10.7 µM [inhibitor, partial curve, poor fit]
CCCc1c(C(=O)Nc2ccc(F)cc2)cnn1-c1ccccc1 | – | inconclusive: 30.1 µM [inhibitor, single point]
CCOc1ccc(-c2c(C(=O)N/N=C(\C)c3cccnc3)nnn2-c2nonc2N)cc1 | inactive: 0.0814% | –

SMILES | activity change, negative = inhibition | Potency
Cc1nn(-c2ccc(Cl)cc2Cl)c(=O)c2ccccc12 | inactive: 5.84% | –
O=c1oc2ccccc2c(O)c1/C=N/c1ccccn1 | – | active: 10.7 µM
O=C(/C=C/c1ccc(Cl)c(Cl)c1)NC1=NCCS1 | – | inconclusive: 1.69 µM [inhibitor, full curve]
Cc1ccc(CN2CCNC(=O)C2CC(=O)N(C)C2CCOCC2)cc1 (stereo not given) | inactive: 1.67% | –
CCOC(=O)/C(=C\C=C\c1ccccc1)NC(=O)c1ccccc1 | – | inconclusive: 16.9 µM [inhibitor, partial curve]
Cc1cccc2c1N(CCCOc1ccccc1)C(=O)C2=O | – | inconclusive: 37.9 µM [inhibitor, partial curve, poor fit]
C/C(=N/NC(=O)c1ccccc1O)c1ccc(N2C(=O)C3CCCCC3C2=O)cc1 (stereo not given) | – | inconclusive: 23.9 µM [inhibitor, single point]
CCOC(=O)COc1ncn(-c2ccccc2)n1 | inactive: -14.6% | –
COc1ccc(NC(=O)c2cccnc2Nc2ccccc2)cc1 | – | inconclusive: 30.1 µM [inhibitor, single point]
COc1ccc(OCc2nnc(SCC(=O)Nc3cccc(C(C)=O)c3)o2)cc1 | – | active: 19 µM
CC(C)N(C(=O)NC(=O)NCC1CCCO1)S(C)(=O)=O (stereo not given) | inactive: 6.12% | –
c1ccc(CCNc2ncnc3nc[nH]c23)cc1 | – | inconclusive: 15.1 µM [inhibitor, partial curve, poor fit]
CC(=O)c1ccc(NC(=S)NC(=O)/C=C/c2ccco2)cc1 | inactive: -12.7% | –
Cc1nnnn1/C(=C\c1ccccc1)C(=O)OCC(=O)NC(C)(C)C | inactive: -0.165% | –
Cc1[nH]ncc1N=Cc1ccc([N+](=O)[O-])cc1 | – | inconclusive: 21.3 µM [inhibitor, single point]
C#CCOC(=O)CN1C(=O)c2cccc3cccc(c23)C1=O | – | inconclusive: 23.9 µM [inhibitor, partial curve, poor fit]
Cc1ccc(NC(=O)c2oc3ccccc3c2NC(=O)C2CCCO2)cc1C (stereo not given) | – | inconclusive: 16.9 µM [inhibitor, partial curve]
COc1cc(/C=C2\SC(=O)N(CC(=O)Nc3cccc(C)c3)C2=O)cc([N+](=O)[O-])c1O | – | inconclusive: 37.9 µM [inhibitor, single point]
COc1ccccc1NC(=S)NNC(=S)Nc1ccc(OC(F)F)cc1 | – | inconclusive: 30.1 µM [inhibitor, partial curve, poor fit]
Cn1nnnc1SCCCNCc1ccc(-c2ccc(Br)cc2)o1 | inactive: -13.1% | –
O=C(CSc1nnnn1C1CCCCC1)Nc1cccc(NC(=O)c2ccco2)c1 | – | active: 16.9 µM
CC(=O)Nc1ccc(NC(=O)CSc2nnc(NC(=O)C3CC3)s2)cc1 | – | inconclusive: 30.1 µM [inhibitor, partial curve, poor fit]
